The data set deals with ATP. Description: switch fluorescence ratio, 500 uM ATP over buffer (Cy3 cluster intensity, sum of 5 cycles each) (fold (ratio)); higher = stronger signal-on switching upon ATP binding; sequences stand for … in TCGTCGGCAGCGTCAGATGTGTATAAGAGACAGTTTTTTTTTTTTTTTTTTTTTTTTT…TC. The settings on record: aptamer strand: ATP DNA aptamer (quencher-CACCTGGGGGAGTATTGCGGAGGAAGG + anchor), 100 nM annealed; ATP concentration: 500 uM; one replicate. The essentials:
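Clusters with intensities outside 100-1000 RFU were excluded. The remaining Cy3-labelled switching-strand clusters on a modified Illumina MiSeq flow-cell had been annealed to 100 nM quencher-labelled ATP aptamer and imaged in selection buffer, then after 15 min with 500 uM ATP at 22 °C, for five cycles separated by NaOH stripping and re-annealing. The fluorescence ratio, averaged per switch-domain sequence, is each cluster's summed target-cycle Cy3 intensity over its summed buffer-cycle Cy3 intensity.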

Values marked as one replicate rest on one cluster of the flow cell; about a third of the high ones do not repeat.
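Also: ATP exposure 15 min at 22 °C before imaging.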

For the sequence GTACTCCAGA, the switch fluorescence ratio is 1.1.
In the case of TAACACGGCA it was 1.1; in that of GTTCATAGGC, 1.01.
Then ATCTCGGA, with 0.992.
Consider TGATGAGGGC, for which the switch fluorescence ratio came to 1.1.
Turning to ATAATCGCTA, the switch fluorescence ratio came out at 1.04.
In the case of AATTACAGGT it was 1.03.
In the case of TACAATTCTC it was 1.05; in that of GAGAGTTGAT, 0.969; in that of TAACCGCCGG, 1.05.
In the case of ACATATTGG it was 1.01; in that of CGCTTGGGGC, 1.02; in that of CTGAGGATAG, 1.06.
CCGATATCTT: the switch fluorescence ratio stood at 1.02.
Then AGTGAAGAGG, with 0.925.
In the case of ACCGAACAGG it was 0.999; in that of CTAAAAAACT, 1.05.
In the case of AGCCTCGGCC it was 0.998; in that of GAAAATTATC, 1; in that of TTCATATGGA, 1.01.
As for AAACACAGTA, the switch fluorescence ratio stood at 1.12.
Then TTCAAATTTG, with 1.01; and AGCCGGGGAA, with 1.02; and CGCCACCATT, with 0.998.
As to AGAGTGGCCA, the switch fluorescence ratio came to 1.05.
Turning to GGCAGAAGGT, the switch fluorescence ratio worked out at 0.971.
Regarding AATTCAGAA, the switch fluorescence ratio worked out at 0.966.
Take CAGAGGACGG: the switch fluorescence ratio was 0.983.
In the case of GTCGCCATAT it was 1.03; in that of TGCTAGTAAT, 1.04.
Then TTGGTTCTTC, with 1.61.
Take GTGTTGGGTC: the switch fluorescence ratio is 0.969.
In the case of GCTTGGTCAA it was 1; in that of CTAGTCCCAG, 1.06; in that of TCTCGTGGT, 1.04.
In the case of CATAGATTTC it was 0.962.
For TTATTCGCA, the switch fluorescence ratio is 1.25.
AAGTCAATCA: the switch fluorescence ratio is 0.988.
In the case of CGTCACTACC it was 1.18; in that of AATTTCGAGC, 0.999.
In the case of CGAGTTTGGT it was 1.09; in that of TTATGGAACT, 1.05.
In the case of CATCCGAAGA it was 2.04.
Take TTCCAGCTTC: the switch fluorescence ratio was found to be 1.14.
Then AGTATTGTAT, with 0.996.
On to TCTAGCGCCA, for which the switch fluorescence ratio came out at 1.07.
In the case of AACCTGCAAT it was 4.98; in that of TGGAAGAGCA, 0.979.
On to GGCTTAGGC, for which the switch fluorescence ratio came to 0.95.
Then CGAGTGCTTG, with 0.952; and CGGATCCGG, with 0.996.
Then CACCTGTGC, with 1.05.
Then CATCGACTGA, with 1.02; and GCTAAGTTGG, with 1; and GCGGGTTGAC, with 1.06.
As for GTCCGTCCAA, the switch fluorescence ratio came to 1.22.
Then TGTTTACGTT, with 1.03; and CCGAGGTGCT, with 2.41; and GTTAATAGCC, with 0.963.
In the case of TCGGCCGCGG it was 1.12.
Then TGAATCCTGG, with 1.05; and CCCGTGAAGG, with 1.05; and TGTGGGCCCT, with 0.988.
Turning to AGTGTGTTGG, the switch fluorescence ratio came to 1.03.
Regarding CCTACGTCCT, the switch fluorescence ratio turned out to be 2.36.
In the case of TTGTGTGAGG it was 0.946; in that of CTCACGGAAG, 1.1; in that of CGACTTAGTG, 0.976.
Then TTAGGGACAC, with 1.03; and GACGTACGCA, with 2.2; and TTAGTATAAT, with 1.02.
In the case of AGCGGACAAG it was 0.982; in that of CCTTAAGTTT, 1.06; in that of GTGAAGATCG, 0.983.
As to CGATGGTAAC, the switch fluorescence ratio came out at 1.11.
Then CCGCCGAGTC, with 2.55.
In the case of GTGACTAAGT it was 1.05.
Turning to CACCCCTGTA, the switch fluorescence ratio came out at 1.05.
In the case of ACCCGCGGAT it was 1.17.
In the case of TTATGGGTGG it was 0.997; in that of GATCGATGGG, 0.975; in that of TATTTATAGG, 0.969.
In the case of CAATTAGTCA it was 0.994.
TGGCCAGGAG: the switch fluorescence ratio was 1.34.
In the case of GCTAGCAGTT it was 0.993; in that of ATCGTAGGGA, 1.02; in that of TAAACTGGCG, 0.834.
In the case of CAATAAGGG it was 0.983; in that of AAACCTGAAG, 1.79; in that of CAATCTTATG, 1.04.
With TTTAAGGTTC, the switch fluorescence ratio amounted to 1.35.
In the case of ACAATACGGC it was 1.48; in that of AATGAGGATA, 1.01; in that of CGTGTTATGG, 1.05.
Then TCGAAAGAAA, with 1.02; and CCCACTATTA, with 0.983.
Then GATGTGGTTG, with 1.05; and GCACCCGAGT, with 1.05.
Take CCACTGGAAC: the switch fluorescence ratio is 1.11.
In the case of ATCTGCGAGG it was 0.991; in that of AACCCAGTTT, 0.968; in that of CTGACAGCTG, 1.09.
Then GGAATTAGTC, with 1.
Then AAAGGGTTCA, with 0.992.
With GACTCCAAGT, the switch fluorescence ratio came to 0.999.
In the case of CCGATCGTTT it was 1.82.
Then GAGGTGGAG, with 0.992.
In the case of AACCTAGGGT it was 1.07; in that of CAATCTCGGA, 0.991.
For CGACAGTT, the switch fluorescence ratio was 1.01.
Then CCTTGCATTG, with 1.76; and AGGCTGTGTA, with 0.999.
Consider AATGCATGC, for which the switch fluorescence ratio stood at 1.03.
Then GTATTATTAG, with 1.02; and TGCGAGAAGA, with 0.983.
Then TATGTCAACG, with 1.01; and GTTGGTTTTA, with 1.01; and TTGGCATCCG, with 0.957.
Then GTGATTGTAT, with 1; and GGTTTTATTC, with 0.978.

(Values after the supplement of paper PMC10126150.)
